Test results: the RNAGym collection of RNA variant scans (doi:10.1093/nar/gkz1192)
The source gives no read counts; variants with many changes may rest on few reads.

B1: CPEB3 Ribozyme (parent)
chain: UAACAGGGGGCCACAGCAGAAGCGUUCACGUCGCAGCCCCUGUCAGAUUCUGGUGAAUCUGCGAAUUCUGCUGUAUAUCUC

Variants of: B1
Experiment: self-cleavage, relative activity (ratio to wild type); higher = more cleavage; in vitro, sequencing
How it was run: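 Relative activity was defined as the cleaved/total read fraction for a variant divided by the same fraction for the unmutated ribozyme. CPEB3 self-cleaving ribozyme libraries were made by rounds of error-prone PCR, barcoded, and transcribed in vitro with T7 RNA polymerase for 5 hours at 37°C, and cleavage ran through transcription plus a 15 min DNase I step before EDTA. Illumina sequencing of template-switched reverse transcripts gave the reads, and DNA sequencing mapped the barcodes. Averages come from three batches, using variants with at least 5 reads.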
A45G U51A U80A showed a self-cleavage of 1.06. A47G C59G U67G showed a self-cleavage of 0.13. With A45U U48C A65G U66C U67C the self-cleavage was 0.09. In the case of A47G U60A A65U, the self-cleavage is reported as 0.14. Work on A47G U51A A57U yielded a self-cleavage of 0.21. A47G U60C U69C gave a self-cleavage of 0.26. With A45G U60C A65G U69A the self-cleavage was 0.12. In the case of A45U C62U G73U, the self-cleavage is reported as 0.11. Work on G46A U54C A57G yielded a self-cleavage of 0.11. Work on A45G A57C U58C U69C yielded a self-cleavage of 0.24. Variant A47G A56G A64G U78C has a self-cleavage of 0.48. With A45G G53C U69A the self-cleavage was 0.32. Work on A47U A57G G70C U74G yielded a self-cleavage of 0.04. With A47U A56U A64G U78C the self-cleavage was 0.11. Work on A47G C62A U72A yielded a self-cleavage of 0.3. A45G G52A A56G gave a self-cleavage of 0.85. In the case of A45G U48C U54A, the self-cleavage is reported as 0.58. A45U U54A U69C U80C showed a self-cleavage of 0.38. A45U U54A C79U showed a self-cleavage of 0.78. Variant A45U U67A U80C has a self-cleavage of 0.22. A45U U66C U72C gave a self-cleavage of 0.18. In the case of A45U U78C C79A, the self-cleavage is reported as 0.77. Variant A45G G46C U67A U69A has a self-cleavage of 0.05. With A45G U51C U67C the self-cleavage was 0.61. In the case of A47U U48C U51G G63U, the self-cleavage is reported as 0.07. Work on A47U A56G U69G yielded a self-cleavage of 0.33. For A45U A64G U67A, the self-cleavage was 0.18. Variant A45U U51A U66A has a self-cleavage of 0.11. In the case of U48C A57G U67C, the self-cleavage is reported as 0.18. In the case of A45G U49C A57U U76C U78C, the self-cleavage is reported as 0.15. A45G U58A U72C U74C showed a self-cleavage of 0.21. With A47G U54C A64G the self-cleavage was 0.19. Work on A45G A47G U54C U78C yielded a self-cleavage of 0.28. A45G A56G U66C showed a self-cleavage of 0.23. In the case of A45U U67C U80G, the self-cleavage is reported as 0.11. With A45U U67C U80A the self-cleavage was 0.15. With A45G A56C U76A the self-cleavage was 0.55. A45G U69C U80C showed a self-cleavage of 0.24. A47C U60A G61U gave a self-cleavage of 0.1. A45G A64G A75G U80A gave a self-cleavage of 0.36. Work on A47G U54A U80C yielded a self-cleavage of 1.2. Work on A47G U58C U66C yielded a self-cleavage of 0.63. Work on A47G U48A U72C yielded a self-cleavage of 0.56. In the case of A47G U69C U72C, the self-cleavage is reported as 0.5. With A47G U49C G55C the self-cleavage was 0.24. A47G U51C C62U showed a self-cleavage of 0.2. A45G G63A U78C gave a self-cleavage of 0.42. A47G U48A U49A U67C showed a self-cleavage of 0.08. A45G A64G U80C gave a self-cleavage of 0.83. For A45G G46A U51G G63U U78C, the self-cleavage was 0.05. In the case of A45U A47G G63U U66C, the self-cleavage is reported as 0.21. A47G U49C U54C showed a self-cleavage of 0.48. Variant A47G U49C U54G has a self-cleavage of 0.15. G46A A47G U67A gave a self-cleavage of 0.17. For A47G A56G U69A, the self-cleavage was 0.18. In the case of A45G G52C U54A A64U U69C U80C, the self-cleavage is reported as 0.52. For A45U U49A A64G U72C, the self-cleavage was 0.11. A47C U51C U66A U78C C79A showed a self-cleavage of 0.15. In the case of A45G U54A A57G A64U C79A, the self-cleavage is reported as 0.26. A45U A47U A56G A77G gave a self-cleavage of 0.13. G46A U54C C59U C68A gave a self-cleavage of 0.28. Work on A45U A56U A64G A65G U78C yielded a self-cleavage of 0.13. Work on A47G U60C U66C U72A yielded a self-cleavage of 0.15. A47U G52C A56G G63U U72C showed a self-cleavage of 0.35. For A45U U54C U76C, the self-cleavage was 0.64. In the case of A47G U69C U80C, the self-cleavage is reported as 0.52. A47G U51A A65G U66C gave a self-cleavage of 0.11. With A47G U51C U80A the self-cleavage was 1.15. For A45U A47G U72C, the self-cleavage was 0.55. In the case of A45G U49C U80C, the self-cleavage is reported as 0.17. A47U G61A U69A U72C showed a self-cleavage of 0.41. G46A G52U C68U U69C gave a self-cleavage of 0.16. With A45U G55A U60G A64G U69C U72A the self-cleavage was 0.07. A47G A57U U60C showed a self-cleavage of 0.18. For A45G U69C G70C U78C, the self-cleavage was 0.24. For A47G G55A A57U U72C, the self-cleavage was 0.19. A45G U49C U51A gave a self-cleavage of 0.42. Work on A47G U58C A77G yielded a self-cleavage of 1.16. Work on A47G A75G U78A yielded a self-cleavage of 1.46. A47G U48C A56U U72C gave a self-cleavage of 0.18. For A45U U49C C62U, the self-cleavage was 0.17. Work on A45U A47U U48C U80C yielded a self-cleavage of 0.05. With A45U A65U U78A the self-cleavage was 0.1. In the case of A45G U58C A64G A65G U67C G70A, the self-cleavage is reported as 0.13. Work on A45U G52U A57U A65G yielded a self-cleavage of 0.09. For A45U A47G U48C U54C, the self-cleavage was 0.13. With A45G U60C U67A U69A the self-cleavage was 0.2. With A45G U49C A57G the self-cleavage was 0.13. A45G U67C U72C showed a self-cleavage of 0.29. In the case of A45G A47U U69C, the self-cleavage is reported as 0.37. Variant U48A U58C U69C has a self-cleavage of 0.08. A47G U51C A57G showed a self-cleavage of 0.5. In the case of A45G A47G U48C U51C, the self-cleavage is reported as 0.11. Variant A47G A64G U67C U72C has a self-cleavage of 0.42. A45G G52C U58C U69A C81U showed a self-cleavage of 0.1. A45G C62U U72A C81U showed a self-cleavage of 0.35. In the case of A45G A65G U80A, the self-cleavage is reported as 0.19. In the case of A45G U49A U60A, the self-cleavage is reported as 0.12. In the case of A47G U48C U49C U60A C79U, the self-cleavage is reported as 0.13. With A45G U76C U80C the self-cleavage was 1.17. Work on A47G A56U A75G yielded a self-cleavage of 0.51. A47G U49C U60A U69C U72C showed a self-cleavage of 0.13. A45G A56U G73A gave a self-cleavage of 0.86. A45U A75G U80A showed a self-cleavage of 0.46. U48A A77G U78A gave a self-cleavage of 0.75. Variant A45G U54A U67C A77U has a self-cleavage of 0.17. With A45U U51G U60A U76A the self-cleavage was 1.06. For G46U U72A U74G U76A, the self-cleavage was 0.1. Variant A45G U51A U69C has a self-cleavage of 0.43. For A45G C62U U80C, the self-cleavage was 0.28. With A45G U58A U72C the self-cleavage was 0.2. In the case of A45U U49C U69C, the self-cleavage is reported as 0.16. With A45U A47C U48C A57G the self-cleavage was 0.12. With A45G C50U A64U U67A C79U the self-cleavage was 0.14. With A45U U49C A56G the self-cleavage was 0.43. In the case of A45G U49A A56G U66C U74C, the self-cleavage is reported as 0.09. With A45G A47G U49A the self-cleavage was 0.18. For A45G A47G U49C, the self-cleavage was 0.12. A47U U54G U80C showed a self-cleavage of 0.37. With A45U U58C A65G the self-cleavage was 0.09. With A45U A56G G63A the self-cleavage was 0.36. A45G U49C A56G showed a self-cleavage of 0.89. For A47U U54A A65G, the self-cleavage was 0.05. Variant A45U U49C G52A U69G has a self-cleavage of 0.1. Work on A47G U51A U69C yielded a self-cleavage of 0.52. For A47G U48C U60C U72G, the self-cleavage was 0.11. A45U A47G U66C gave a self-cleavage of 0.2. For A45G U66C U67A, the self-cleavage was 0.22. Variant A45G A47G A65G has a self-cleavage of 0.41. A45U A47G C50A gave a self-cleavage of 0.4. In the case of A47C U51A U67C, the self-cleavage is reported as 0.08. In the case of A47C U51A A75G, the self-cleavage is reported as 0.33. A45G U48C A57G C59G U76A gave a self-cleavage of 0.1. For A47G A64U A75U, the self-cleavage was 0.13. For A45U G61C A65G, the self-cleavage was 0.13. Work on A47G A77U U80C yielded a self-cleavage of 1.11. A47C U48C C59U gave a self-cleavage of 0.27. G46A C59A U66C U69A gave a self-cleavage of 0.47. Variant A47G G52A U72A has a self-cleavage of 0.95. Work on G46U A56G C62U A65U yielded a self-cleavage of 0.06. A47G A56U U69A showed a self-cleavage of 0.24. With A47G U48C U80C the self-cleavage was 0.28. A47C U49C U54G showed a self-cleavage of 0.15. Variant A45G A57G U60C A77G has a self-cleavage of 0.94. With A45G A64G A65G U80C the self-cleavage was 0.17. Work on A47G U60A U69C yielded a self-cleavage of 0.3. With U48C A56G U69C the self-cleavage was 0.51. For A47G A65G A77G, the self-cleavage was 0.42. U48C A64G A65U U67C gave a self-cleavage of 0.23. Work on A47G A64G U66C G73A yielded a self-cleavage of 0.55. A45U U48A U58A showed a self-cleavage of 0.09. A45U A47G C68U U69A U78C showed a self-cleavage of 0.11. Work on A45U U49A A56G U67A U78C yielded a self-cleavage of 0.1. Work on A47U A56G A57G C59U U60A yielded a self-cleavage of 0.11. In the case of A45G A64G U69G U78C, the self-cleavage is reported as 0.13. Work on A47G A57G U58C A65G U78C yielded a self-cleavage of 0.39. For A47G A57G A64G U78A, the self-cleavage was 0.34. In the case of A45G U49C U54C, the self-cleavage is reported as 0.49. Work on A47U U51A A57G yielded a self-cleavage of 0.35. G46A A56G G61A gave a self-cleavage of 0.09. Work on A45G U54A A57G U69C yielded a self-cleavage of 0.41. A45G A56G A57G U69C U80A gave a self-cleavage of 0.1. Work on A47U A56G G63A A64U U76C U78A yielded a self-cleavage of 0.09. With A47G A65G U69C the self-cleavage was 0.13. With A45U C62A U67C G73A the self-cleavage was 0.16. Work on A47G A57U U60C U78C yielded a self-cleavage of 0.16. With G46C U49C U60A A77U the self-cleavage was 0.1.
